{"source": "PubChem BioAssay AID1347417", "about": "(National Center for Advancing Translational Sciences (NCATS), 2020)", "note": "The campaign covered roughly 120,000 compounds. About 5,300 (4.4%) were called active. The inconclusive results got no clear call from the source; some entries with a clear call stand among them for comparison. Calls come from the whole dose curve; as a rule, active = well fitted inhibition curve with a large enough effect; inconclusive = small, poorly fitted or top-dose-only effect; inactive = no such curve, though single readings can be large or run the other way. Where the call is inconclusive, the potency comes from a doubtful curve fit. Potency is the fitted concentration of half-maximal effect; tags give direction and shape of the fitted curve."}
{"assay": "qHTS Primary assay for Inhibitors of Plasmodium falciparum Dd2 growth in vitro; note: nearly all actives have a fitted effect of over 65% in size;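 for activity, negative = inhibition: plate controls were DMSO vehicle for no effect and reference drug for full effect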", "details": "P. falciparum Dd2 growth, SYBR Green, 72 h; activity, negative = inhibition: at 28.9 µM (top of the series) unless noted; series mostly up to 28.9 µM", "procedure,_shortened": "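Infected erythrocytes (Dd2, 0.3% parasitemia, 2.5% hematocrit final) are added to compound in RPMI-1640/Albumax II medium, grown 72 h at 37C in low oxygen, then lysed with saponin/Triton-X containing SYBR Green and read by fluorescence.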"}
{"compound": "CC1=C[C@@H](CN2CCN(c3ncccn3)CC2)[C@H](C(C)C)C[C@H]1Cc1nnc(Cc2c[nH]c3ccccc23)o1", "Potency": "active: 3.55 µM"}
{"compound": "O=[S+]([O-])(c1cccc(C(F)(F)F)c1)N1CCn2c(nnc2-c2ccccc2)C1", "outcome": "inactive"}
{"compound": "COCCc1noc(-c2ccccc2OC2CN(C(=O)CC3CCCC3)C2)n1", "Potency": "inconclusive: 3.98 µM [inhibitor, partial curve]"}
{"compound": "Cc1c(CN2CC(Oc3ccccc3C(=O)NCc3ccccc3)C2)cnn1C", "Potency": "inconclusive: 0.224 µM [inhibitor, full curve, poor fit]"}
{"compound": "COCc1cc(=O)n(CC(=O)Nc2cccc(Br)c2)c(N2CCOCC2)n1", "activity, negative = inhibition": "inactive: -14.2%"}
{"compound": "Cc1ccc(Cn2c(C(=O)O)c(CNC3CCCC3)c3ccc(C)cc32)cc1", "outcome": "inactive"}
{"compound": "CC(C)[S+](=O)([O-])N1CCN(c2ccc(Cl)nn2)C(=O)C1", "activity, negative = inhibition": "inactive: -4.38%"}
{"compound": "Cc1nc(C)c(C(=O)N2CCC3(CC2)CC(N2CCOCC2)CCO3)s1", "note": "(centres undefined)", "activity, negative = inhibition": "inactive: 38.7%"}
{"compound": "O=C(c1cccs1)N1CCC2(CCCN(CCC3CCCCC3)C2=O)C1", "note": "(centres undefined)", "activity, negative = inhibition": "inactive: -6.7%"}
{"compound": "Cc1ccc(OCc2ccc(-c3nc(C#N)c(NCc4ccccc4Cl)o3)o2)cc1", "Potency": "inconclusive: 17.8 µM [inhibitor, single point]"}
{"compound": "O=C1CO[C@H]2CCN(Cc3ccc4[nH]ccc4c3)CC[C@@H]2N1Cc1ccc(O)cc1", "activity, negative = inhibition": "inactive: -14.7% [at 44.1 µM]"}
{"compound": "CC(=O)Nc1ccc(S(=O)(=O)N2CCC(CCC(=O)Nc3cccc(C)c3)CC2)cc1", "activity, negative = inhibition": "inactive: -29%"}
{"compound": "O=C(C[C@@H]1O[C@H](CNS(=O)(=O)c2ccc(Cl)cc2)[C@@H](O)[C@H]1O)N1CCN(c2ccc(F)cc2)CC1", "Potency": "inconclusive: 17.8 µM [inhibitor, single point]"}
{"compound": "COc1ccc(-c2onc(C)c2C)cc1S(=O)(=O)NCC1CCN(Cc2cccc(F)c2)CC1", "Potency": "inconclusive: 14.1 µM [inhibitor, single point]"}
{"compound": "COc1ccccc1CCC(=O)NC1CCc2nnc(C)n2CC1", "note": "(centres undefined)", "activity, negative = inhibition": "inactive: 26.2%"}
{"compound": "COc1cccc(CN[C@@H]2CCC[C@@H](C(=O)N(C)Cc3cccnc3)CC(=O)N(C)C2)c1", "activity, negative = inhibition": "inactive: -16.9%"}
{"compound": "COc1ccc(NC(=O)c2c(NCc3cccc(OC)c3)sc3c2CCCC3)cc1", "Potency": "active: 10 µM"}
{"compound": "Cc1ccc2occ(CC(=O)N(Cc3ccc(C(C)C)cc3)C3CCS(=O)(=O)C3)c2c1", "note": "(centres undefined)", "Potency": "inconclusive: 12.6 µM [inhibitor, single point]"}
{"compound": "O=C(C1CCCCC1)N1CCN(C2CCN(Cc3cccnc3)C2=O)CC1", "note": "(centres undefined)", "Potency": "inconclusive: 0.0631 µM [inhibitor, full curve, poor fit]"}
{"compound": "O=C(CCC1N=C2c3ccccc3N=C(SCc3ccccc3F)N2C1=O)NCc1ccc(F)cc1", "note": "(centres undefined)", "Potency": "inconclusive: 17.8 µM [inhibitor, single point]"}
{"compound": "CCN1CCc2nc3sc(C(=O)c4ccc(F)cc4)c(N)c3cc2C1", "Potency": "inconclusive: 17.8 µM [inhibitor, single point]"}
{"compound": "COc1ccc(C2=NOC3(CCCN(CC4CCCCC4)C3)C2)cc1", "note": "(centres undefined)", "Potency": "inconclusive: 6.31 µM [inhibitor, partial curve, poor fit]"}
{"compound": "Cc1ccc(NC(=O)Cn2nc3n(c2=O)CCCC3)cc1Cl", "Potency": "inconclusive: 1.58 µM [inhibitor, partial curve, poor fit]"}
{"compound": "CCCCn1c(NCc2ccc(N(C)C)cc2)nc2ccccc21", "Potency": "inconclusive: 17.8 µM [inhibitor, single point]"}
{"compound": "O=C(CCOc1ccccc1)N(Cc1cccnc1)c1nc2c(F)cccc2s1", "Potency": "inconclusive: 11.2 µM [inhibitor, single point]"}
{"compound": "O=C(N[C@@H]1CN(C(=O)Nc2ccccc2)CCC[C@H]1O)c1ccc(O)cc1", "Potency": "inconclusive: 11.2 µM [inhibitor, partial curve, poor fit]"}
{"compound": "O=C(O)CC1(CC(=O)N2CCN3C(=O)c4cc(-c5ccsc5)ccc4NC(=O)[C@@H]3C2)CCCC1", "outcome": "inactive"}
{"compound": "O=C(O)Cn1ccc2cc(S(=O)(=O)N3CCCCCC3)ccc21", "activity, negative = inhibition": "inconclusive: -70.5% [inhibitor] [at 0.594 µM]"}
{"compound": "CN1C(=O)CCC2(CNC(=O)CCc3nc(-c4ccccc4)no3)CCC=C12", "note": "(centres undefined)", "Potency": "inconclusive: 11.2 µM [inhibitor, partial curve, poor fit]"}
{"compound": "Cc1cccc(N(CC(=O)N[C@H]2CC[C@H]2NC2CCCC2)S(C)(=O)=O)c1", "Potency": "inconclusive: 20 µM [inhibitor, single point]"}
{"compound": "CC(=O)N1C[C@@H]2C[C@H]1C(=O)N(Cc1ccc(OC(F)(F)F)cc1)c1ccccc1O2", "Potency": "inconclusive: 22.4 µM [inhibitor, single point]"}
{"compound": "O=C(NC1CC1)c1nc(-c2ccccc2)c2ccccn12", "Potency": "inconclusive: 10 µM [inhibitor, partial curve, poor fit]"}
{"compound": "Cc1cccc(N2CCN(C(=O)Cn3nc(Cc4cccnc4)c4ccccc4c3=O)CC2)c1C", "Potency": "inconclusive: 17.8 µM [inhibitor, single point]"}
{"compound": "Cc1cccc2nc(C(=O)N3CCC(n4cc(C(C)(C)O)nn4)CC3)cn12", "activity, negative = inhibition": "inactive: 0.806%"}
{"compound": "c1cc2c(cc1N1CCC(N3CCC4(CCNCC4)C3)CC1)OCO2", "Potency": "inconclusive: 20 µM [inhibitor, single point]"}
{"compound": "Fc1ccc(-c2nnc3ccc(NCC4CC4)nn23)nc1", "Potency": "inconclusive: 25.1 µM [inhibitor, single point]"}
{"compound": "CC(=O)N1CCCC1c1nc2ccccc2n1Cc1ccccc1C", "note": "(centres undefined)", "Potency": "inconclusive: 11.2 µM [inhibitor, single point]"}
{"compound": "CCN1CCN(C(=O)C2Cn3cccc3C(=O)N2CC(C)C)CC1", "note": "(centres undefined)", "activity, negative = inhibition": "inactive: -30.7%"}
{"compound": "COc1c(F)cccc1CN1CCOc2cc([S+](N)(=O)[O-])ccc2C1", "outcome": "inactive [at 44.1 µM]"}
{"compound": "COCC1CN(S(=O)(=O)c2cccc(C)c2)CC12CCOCC2", "note": "(centres undefined)", "activity, negative = inhibition": "inactive: -0.252%"}
{"compound": "c1cc(OC2CCCCC2)ncc1-c1noc([C@@H]2CCCN2C2CCOCC2)n1", "Potency": "active: 11.2 µM"}
{"compound": "COc1ccc(C(C(=O)O)N2CCN(Cc3csc(C)n3)CC2)cc1C", "note": "(centres undefined)", "activity, negative = inhibition": "inactive: 19.2%"}
{"compound": "FC(F)(F)c1ccc2c(c1)nc1n2[C@@H](CNCc2c[nH]c3ccccc23)COC1", "Potency": "inconclusive: 5.62 µM [inhibitor, single point]"}
{"compound": "CC(C)CCCC1CN(C(=O)CCN2CCCO2)CCO1", "note": "(centres undefined)", "activity, negative = inhibition": "inactive: 0.11%"}
